Assay results taken from the antibiotic and cytotoxicity screens of Wong et al. (2023).
This is one part of the list.

Test system: S. aureus RN4220
Test: growth inhibition call (relative growth <= 0.2)
Details: 50 µM

Growth inhibition call, inactive:
C[C@@H]1CN([C@H](C)CO)C(=O)Cc2cc(NS(=O)(=O)c3cn(C)cn3)ccc2O[C@H]1CN(C)Cc1ccccc1
CC(C)NC(=O)Nc1ccc2c(c1)C(=O)N([C@@H](C)CO)C[C@H](C)[C@H](CN(C)Cc1ccc(Oc3ccccc3)cc1)O2
C[C@@H]1CN([C@@H](C)CO)C(=O)Cc2cc(NS(=O)(=O)c3cn(C)cn3)ccc2O[C@H]1CN(C)Cc1ccccc1
Nc1cncnc1
COc1ccc(S(=O)(=O)N2C[C@@H](O)COC[C@H]3O[C@@H](CC(=O)NCc4ccc(Cl)c(Cl)c4)CC[C@@H]32)cc1
Cc1nsc(C(=O)NC[C@H]2CCCO2)n1
C[C@@H]1CN([C@H](C)CO)C(=O)CCCn2cc(nn2)CO[C@@H]1CN(C)C(=O)CCCN(C)C
Cc1cc(C)c(S(N)(=O)=O)cc1S(N)(=O)=O
C[C@H]1CN([C@@H](C)CO)C(=O)Cc2cc(NS(=O)(=O)c3cn(C)cn3)ccc2O[C@@H]1CN(C)CC1CCCCC1
CCS(=O)(=O)Nc1ccc2c(c1)C(=O)N(C)[C@@H]1CC[C@H](CC(=O)N[C@@H]3CCN(Cc4ccccc4)C3)O[C@@H]1CO2
C[C@H](O)C#Cc1cnc2c(c1)C(=O)N([C@H](C)CO)C[C@@H](C)[C@H](CN(C)C(=O)Nc1ccc(C(F)(F)F)cc1)O2
